Out of some 3,200 compounds screened, about 300 (9.4%) showed activity. Only a part is listed here, and it is no random draw.
System: A673/TR/shEF
Test: cell viability (LOESS-normalised, relative to median of negative controls) (log2 ratio); higher = more viable cells (less compound effect), active = hit call of the paper (over 3 MAD below the median)
Details: treatment time: 72 h
Summary of the method: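 Viability of A673/TR/shEF Ewing sarcoma cells was determined by CellTiter-Glo luminescence. The cells, at 1,500 per well in 384-well plates, were grown with or without doxycycline from 24 h before compound addition to switch on EWS-FLI1 shRNA knockdown, then exposed for three days to library compounds at two or more concentrations or to DMSO controls. Signals were LOESS-corrected plate by plate, normalised to the negative-control median and log2-transformed.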

[1] = 0.25 µM, library screen: screen1, EWS-FLI1 expression: high (no doxycycline)
[2] = 0.25 µM, library screen: screen1, EWS-FLI1 expression: low (doxycycline-induced shRNA knockdown)
[3] = 0.25 µM, library screen: screen2, EWS-FLI1 expression: high (no doxycycline)
[4] = 0.25 µM, library screen: screen2, EWS-FLI1 expression: low (doxycycline-induced shRNA knockdown)
[5] = 2.5 µM, library screen: screen1, EWS-FLI1 expression: high (no doxycycline)
[6] = 2.5 µM, library screen: screen1, EWS-FLI1 expression: low (doxycycline-induced shRNA knockdown)
[7] = 2.5 µM, library screen: screen2, EWS-FLI1 expression: high (no doxycycline)
[8] = 2.5 µM, library screen: screen2, EWS-FLI1 expression: low (doxycycline-induced shRNA knockdown)
[9] = 0.025 µM, library screen: screen1, EWS-FLI1 expression: high (no doxycycline)
[10] = 0.025 µM, library screen: screen1, EWS-FLI1 expression: low (doxycycline-induced shRNA knockdown)
[11] = 25 µM, library screen: screen1, EWS-FLI1 expression: high (no doxycycline)
[12] = 25 µM, library screen: screen1, EWS-FLI1 expression: low (doxycycline-induced shRNA knockdown)
[13] = 0.103 µM, library screen: screen3, EWS-FLI1 expression: high (no doxycycline)
[14] = 0.103 µM, library screen: screen3, EWS-FLI1 expression: low (doxycycline-induced shRNA knockdown)
[15] = 0.308 µM, library screen: screen3, EWS-FLI1 expression: high (no doxycycline)
[16] = 0.308 µM, library screen: screen3, EWS-FLI1 expression: low (doxycycline-induced shRNA knockdown)
[17] = 0.926 µM, library screen: screen3, EWS-FLI1 expression: high (no doxycycline)
[18] = 0.926 µM, library screen: screen3, EWS-FLI1 expression: low (doxycycline-induced shRNA knockdown)
[19] = 2.8 µM, library screen: screen3, EWS-FLI1 expression: high (no doxycycline)
[20] = 2.8 µM, library screen: screen3, EWS-FLI1 expression: low (doxycycline-induced shRNA knockdown)
[21] = 8.3 µM, library screen: screen3, EWS-FLI1 expression: high (no doxycycline)
[22] = 8.3 µM, library screen: screen3, EWS-FLI1 expression: low (doxycycline-induced shRNA knockdown)
[23] = 25 µM, library screen: screen3, EWS-FLI1 expression: high (no doxycycline)
[24] = 25 µM, library screen: screen3, EWS-FLI1 expression: low (doxycycline-induced shRNA knockdown)

Measured: cell viability (log2)

NCCc1c[nH]c2ccccc12
inactive: [1] 0.0863 | [2] 0.0487 | [3] -0.0607 | [4] 0.0934 | [5] 0.0912 | [6] 0.0293 | [7] 0.0286 | [8] 0.047

C[C@]12CC[C@H](O)C[C@H]1CC[C@@H]1[C@@H]2C[C@@H](O)[C@]2(C)[C@@H](C3=CC(=O)OC3)CC[C@]12O
active: [5] -0.488 | [6] -0.691

O=c1ccc2cc(O[C@@H]3OC(CO)[C@@H](O)C(O)C3O)c(O)cc2o1 (some centres undefined)
inactive: [1] 0.0986 | [2] -0.0879 | [5] 0.201 | [6] 0.107

CCCSP(=O)(OCC)SCCC
inactive: [1] 0.112 | [2] 0.104 | [5] 0.0625 | [6] 0.0939

CN1CCN(C(=O)OC2c3nccnc3C(=O)N2c2ccc(Cl)cn2)CC1 (centres undefined)
inactive: [3] 0.205 | [4] 0.102 | [7] 0.154 | [8] 0.109

CN[C@@H]1C[C@H]2O[C@@](C)([C@@H]1OC)n1c3ccccc3c3c4c(c5c6ccccc6n2c5c31)C(=O)NC4
active: [9] -2.08 | [10] -1.86 | [1] -3.68 | [2] -3.78 | [5] -4.25 | [6] -4.31 | [11] -4.11 | [12] -4.31

CCN1C[C@]2(COC)[C@H](O)C[C@H](OC)[C@]34C1[C@H]([C@H](OC)[C@H]23)[C@]1(OC(C)=O)[C@H]2[C@@H](OC(=O)c3ccccc3)[C@](O)(C[C@H]24)[C@@H](OC)[C@@H]1O
inactive: [1] 0.162 | [2] 0.0997 | [5] 0.181 | [6] 0.202

Clc1ccc(C(OCCN2CCCCC2)c2ccccc2)cc1 (centres undefined)
inactive: [1] 0.0706 | [2] -0.00561 | [5] 0.0775 | [6] 0.0945

Cc1c(N)nc([C@H](CC(N)=O)NC[C@H](N)C(N)=O)nc1C(=O)N[C@H](C(=O)N[C@H](C)[C@@H](O)[C@H](C)C(=O)N[C@H](C(=O)NCCc1nc(-c2nc(C(=O)NCCC[S+](C)C)cs2)cs1)[C@@H](C)O)[C@@H](OC1OC(CO)C(O)C(O)C1OC1OC(CO)C(O)C(OC(N)=O)C1O)c1cnc[nH]1 (some centres undefined)
inactive: [1] 0.091 | [2] 0.105 | [5] 0.125 | [6] 0.052

O=C(O)C1C2CCC(O2)C1C(=O)O (centres undefined)
inactive: [9] 0.136 | [10] 0.0328 | [1] 0.0769 | [2] 0.0235 | [3] 0.267 | [4] 0.0812 | [7] 0.105 | [8] -0.0306
active: [5] -0.431 | [6] -2.19 | [11] -0.369 | [12] -2.13

CN(C)C(=O)Oc1ccc[n+](C)c1
inactive: [13] 0.101 | [14] 0.057 | [1] 0.121 | [2] 0.143 | [3] 0.231 | [4] 0.0517 | [15] 0.0662 | [16] 0.104 | [17] 0.0748 | [18] 0.0993 | [5] 0.0955 | [6] 0.131 | [7] 0.306 | [8] 0.0307 | [19] -0.0235 | [20] 0.0464 | [21] -0.0229 | [22] 0.133 | [23] 0.000715 | [24] 0.0844

CCC1(O)CC(OC2CC(N(C)C)C(O)C(C)O2)c2c(cc3c(c2O)C(=O)c2c(O)cccc2C3=O)C1C(=O)OC (centres undefined)
inactive: 0.025 µM, library screen: screen2, EWS-FLI1 expression: high (no doxycycline) -0.0129 | 0.025 µM, library screen: screen2, EWS-FLI1 expression: low (doxycycline-induced shRNA knockdown) 0.0193 | [3] 0.135 | [4] -0.0369
active: [7] -0.409 | [8] -0.0756 | 25 µM, library screen: screen2, EWS-FLI1 expression: high (no doxycycline) -4.23 | 25 µM, library screen: screen2, EWS-FLI1 expression: low (doxycycline-induced shRNA knockdown) -3.71

C#CCN(C)[C@H](C)Cc1ccccc1
inactive: [13] 0.0599 | [14] 0.0326 | [15] -0.0258 | [16] 0.00835 | [17] 0.029 | [18] 0.0504 | [19] -0.0101 | [20] -0.00191 | [21] 0.0521 | [22] 0.0473 | [23] -0.00353 | [24] 0.0686

CN1C2CC3CC1[C@H](O)C2O3 (some centres undefined)
inactive: [1] 0.0139 | [2] -0.0209 | [5] 0.0278 | [6] 0.0758

CC(N)c1cccc(Cl)c1Cl (centres undefined)
inactive: [3] 0.233 | [4] 0.103 | [7] 0.144 | [8] 0.0732

CCc1c(C(=O)OC)ncc2[nH]c3cc(OC)c(OC)cc3c12
inactive: [3] 0.212 | [4] 0.033 | [7] 0.14 | [8] 0.0303

CC(=O)NCCc1c[nH]c2ccccc12
inactive: [3] 0.149 | [4] 0.143 | [7] 0.0895 | [8] 0.082

Nc1ccc(CCN2CCN(c3cccc(C(F)(F)F)c3)CC2)cc1
inactive: [3] 0.0196 | [4] 0.0537 | [7] 0.131 | [8] 0.044
